Hit rate of the full screen: of about 310,000 compounds, about 2,200 (0.71%) showed an effect of 50% or more. Effects have a minus sign here. The list shows a part of the results.
Target: human ether-à-go-go-related gene (hERG) potassium channel (human, UniProt Q12809)
Assay: primary screen, population patch clamp on CHO cells stably expressing hERG

Sequence of human ether-à-go-go-related gene (hERG) potassium channel (Q12809 whole entry, looked up): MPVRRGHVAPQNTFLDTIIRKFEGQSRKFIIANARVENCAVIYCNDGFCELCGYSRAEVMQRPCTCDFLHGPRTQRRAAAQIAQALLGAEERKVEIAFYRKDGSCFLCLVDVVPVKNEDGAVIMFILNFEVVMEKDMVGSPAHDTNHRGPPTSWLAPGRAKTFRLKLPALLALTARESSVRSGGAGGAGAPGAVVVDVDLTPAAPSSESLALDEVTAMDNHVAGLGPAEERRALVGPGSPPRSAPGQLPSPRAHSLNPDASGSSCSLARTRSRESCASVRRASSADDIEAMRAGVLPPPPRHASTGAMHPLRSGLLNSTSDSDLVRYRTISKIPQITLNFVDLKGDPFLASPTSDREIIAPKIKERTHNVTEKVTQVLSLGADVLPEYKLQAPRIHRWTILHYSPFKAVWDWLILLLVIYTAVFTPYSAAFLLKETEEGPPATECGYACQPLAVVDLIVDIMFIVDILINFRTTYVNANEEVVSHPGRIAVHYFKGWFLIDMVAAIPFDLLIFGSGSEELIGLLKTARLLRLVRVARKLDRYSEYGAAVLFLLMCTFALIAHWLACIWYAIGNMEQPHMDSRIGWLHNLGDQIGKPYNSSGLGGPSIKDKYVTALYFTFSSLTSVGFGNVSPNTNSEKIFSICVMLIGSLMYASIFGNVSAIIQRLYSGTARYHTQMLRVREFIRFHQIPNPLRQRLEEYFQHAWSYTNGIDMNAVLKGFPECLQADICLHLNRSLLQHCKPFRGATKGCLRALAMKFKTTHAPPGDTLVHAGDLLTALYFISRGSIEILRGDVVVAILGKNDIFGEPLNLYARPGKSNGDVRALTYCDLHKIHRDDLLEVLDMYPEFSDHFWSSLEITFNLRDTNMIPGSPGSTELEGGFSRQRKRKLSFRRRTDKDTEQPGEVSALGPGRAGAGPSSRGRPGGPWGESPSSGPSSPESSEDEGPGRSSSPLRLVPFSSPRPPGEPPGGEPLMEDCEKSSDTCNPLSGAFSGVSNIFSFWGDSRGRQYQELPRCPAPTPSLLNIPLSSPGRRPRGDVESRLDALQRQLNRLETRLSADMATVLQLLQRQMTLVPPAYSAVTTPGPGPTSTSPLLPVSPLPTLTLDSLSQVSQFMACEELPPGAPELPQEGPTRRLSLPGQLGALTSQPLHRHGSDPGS

Compound | hERG current change (%, negative = inhibition) at 1uM [%]
Cc1ccccc1NC(=O)c1ccc(C)c(S(=O)(=O)N2CCN(C)CC2)c1 | 14.3
CCOC(=O)c1c(/N=C/c2c(O)n(-c3ccccc3F)c(=S)[nH]c2=O)sc2c1CCCC2 | 15.7
CNC(=O)O/N=C(\N)Cc1csc2ccccc12 | 9.71
COc1cccc(N2CCN(Cc3cccc(Cl)c3)CC2)c1 | 12
CC(C)(O)C#Cc1ccc(CN2CCN(C3CCCCC3)C(CCO)C2)cc1 (stereo not drawn) | 6.43
O=[N+]([O-])c1ccccc1S(=O)(=O)N1CCN(Cc2ccccc2)CC1 | 6.14
CCOc1ccc(Cl)cc1CN1CCOCC1.Cl | 6.88
CCOC(=O)C1CCCCN1Cc1cn(C)nc1-c1ccccc1F (stereo not drawn) | 3.95
Cc1cc(C(=O)COC(=O)C2CCN(C(=O)c3ccc(Cl)cc3)CC2)c(C)n1CC1CCCO1 (stereo not drawn) | 5.28
O=C(NCc1ccc(Cl)cc1)C1CCN(S(=O)(=O)c2ccc(N3CCCC3=O)cc2)CC1 | 17.8
COC(C/C=C\[C@H](O)COCc1ccccc1)OC | 16.4
O=C(O)C(=O)O.c1ccc(CN2CCN(CCOCCOc3ccc4c(c3)CCC4)CC2)cc1 | 11.6
CC(C)CCOc1ccc(C(CC(N)=O)C(=O)O)cc1 (stereo not drawn) | 17.4
O=c1o[nH]c(-c2ccccc2)c1-c1ccccc1 | 0.753
Cc1ccc(NC(=O)COC(=O)C(CC(C)C)N2C(=O)C3CC=CCC3C2=O)c(C)c1 (stereo not drawn) | 11.3
O=C(Nc1ccc(-c2nc3ccccc3[nH]2)cc1)c1ccccc1NS(=O)(=O)c1ccc(F)cc1 | 0.294
COc1ccc(S(=O)(=O)N2CCOC23CCN(C(=O)c2ccc(Cl)cc2Cl)CC3)cc1 | 8.53
Cc1ccc(S(=O)(=O)NC(=S)NC2CCCCC2)cc1 | 11.2
O=C(CSc1nnc(-c2cccnc2)o1)Nc1cccc(F)c1 | 12.6
COc1cn(-c2ccccc2)nc1C(=O)Nc1ccc(C)cc1Cl | 11.4
CC(Oc1ccc(F)cc1F)C(=O)NNC(=S)NCC1CCCO1 (stereo not drawn) | 0.604
CCN1CCS/C1=C/C=C/C1=[N+](CC)CCS1.[I-] | 3.64
C=CCN(C#N)c1nc(OC)nc(N2CCCC2)n1 | 5.82

Compound | hERG current change (%, negative = inhibition) at 1uM [%]
CC(C)CC(NS(=O)(=O)c1cccc(C(=O)O)c1)C(=O)O (stereo not drawn) | 21.8
COc1ccc(NC(=O)CN(C)C(=O)COc2ccccc2Cc2ccccc2)cc1 | -2.56
O=C1CC(NS(=O)(=O)c2ccc([N+](=O)[O-])cc2)CN1c1ccc(Cl)cc1 (stereo not drawn) | -20.1
C#CCOCCOCCOCCNc1nc(N2CCN(C(=O)[C@H](CCCCN)n3cc(C(N)CC(C)C)nn3)CC2)nc(N2CCN(C(=O)[C@H](CCC(=O)O)n3cc(C(N)[C@H](C)CC)nn3)CC2)n1.Cl (stereo partly drawn) | 8.86
COc1ccccc1NC(=O)COC(=O)C12CC3CC(CC(Cl)(C3)C1)C2 | 19.3
Cc1ccc(CNC(=O)CCCCCNC(=O)N2CCn3c2nc2ccccc23)cc1 | 4.09
O=C1NC(=O)C(c2cccs2)(c2cccs2)N1 | 9.06
CCC(C(=O)O)P(=O)(c1ccc(Cl)cc1)c1ccc(Cl)cc1 (stereo not drawn) | 14.3
O=C(CCCC(=O)NC1CCCC1)NC1CCCC1 | 9.37
CCOC1(NC(=O)c2ccccc2)C(C)=CC(=O)C=C1C | -21.8
CC1=CCC(C(=O)N/N=C/c2cccs2)C(c2ccc(F)cc2)C1 (stereo not drawn) | 4.87
Cc1ccc(CNC(=O)N2CCN(C)CC2)cc1 | 3.96
COc1ccc(N2C(=O)/C(=C3/C=CC=CN3C)SC2=S)cc1 | 20.6
COC(=O)N/N=C/c1cccnc1 | 14
CCOc1ccc(NC(=S)N/N=C(\C)Cc2ccc(OC)cc2)cc1 | 6.3
O=C1CSC(c2ccncc2)N1Cc1ccco1 (stereo not drawn) | 4.51
CSC1=NCCN1S(=O)(=O)c1ccc(F)cc1 | -8.01
CC(OC(=O)C(NC(=O)c1ccco1)C(C)C)C(=O)Nc1ncc(Cl)cc1Cl (stereo not drawn) | -9.25
Oc1ccc2[nH]ccc2c1 | 6.73
COc1cc2cc(CCOC(=O)c3ccco3)oc(=O)c2cc1OC | 12.8
COc1ccc(S(=O)(=O)N(CC(=O)N2CCN(c3ccccc3)CC2)c2ccccc2)cc1 | 4.88
O=C(Nc1ccc2c(c1)nc1n2CCOC1)C1CCCCC1 | 7.97
Cc1cc(=O)n2c(n1)NC(Nc1cccc(C)c1C)=NC2c1ccccc1 (stereo not drawn) | 14.8

Compound | hERG current change (%, negative = inhibition) at 1uM [%]
O=C1NC(=O)C(=Cc2ccc(OCCOc3ccc([N+](=O)[O-])cc3)cc2)C(=O)N1 | -2.94
O=C(COC(=O)Cc1ccsc1)NCc1ccccc1 | 13.3
COc1ccc(-n2cnc3cc(N)ccc32)cc1 | 15.3
Cc1ccc(CNC(=O)C2CCN(S(=O)(=O)N3CCCCC3)CC2)cc1 | 3.51
CCOC(=O)C1CCN(C(=O)COc2ccc(N(C)S(=O)(=O)c3ccc(C)cc3)cc2)CC1 | -3.73
COc1cccc(CNCCOCCO)c1OC.Cl | 7.56
Cc1cc(/C=C2/C(=O)NC(=O)N(c3ccccc3)C2=O)c(C)n1-c1ccc(F)cc1 | 3.09
Cc1ccc(S(=O)(=O)N(C)C)cc1NC(=O)COC(=O)COc1ccccc1[N+](=O)[O-] | 8.13
Cc1cc(NC(=O)CSCc2nc(-c3cccc(F)c3)oc2C)no1 | 17.4
Cc1nc(NC(=S)NC(=O)c2cccs2)ccc1Br | 10.6
Nc1ccc(C(=O)OCc2nc3c(ccc4ccccc43)[nH]2)cc1 | 14.2
O=C(c1ccccc1OC(F)F)N1CCN(S(=O)(=O)c2ccc3c(c2)OCCCO3)CC1 | -2.97
CC(=O)N1CCN(c2ccnc3cc(Cl)ccc23)CC1 | -23.2
N=c1c(C(=O)NCc2ccco2)cc2c(=O)n3ccccc3nc2n1CCc1ccccc1 | -84.2
CC(=O)c1c(C)[nH]c(C(=O)COC(=O)c2cc(S(=O)(=O)N(C)c3ccccc3)ccc2Cl)c1C | 5.71
CCOc1ccc(NC(=O)C2CCCN(C(=O)Nc3ccccc3)C2)cc1 (stereo not drawn) | 11.1
Cc1noc(C)c1C(=O)N1CCN(Cc2ccccc2)CC1 | 8.36
CCOc1cc(/C=N/NC(=O)c2cccnc2)ccc1O | 7.47
CC(C)Oc1ccc(OCCCN2CCCCCC2)cc1.O=C(O)C(=O)O | -14.1
CCNC(=O)c1cc2ccccc2o1 | 4.58
Cc1cc(C(=O)O)ccc1-c1ccc(CO)o1 | 17.8
Cc1ccc(OCC(=O)Nc2ccc(S(=O)(=O)N3CCCCC3)cc2)c([N+](=O)[O-])n1 | 26.3
O=S(=O)(c1ccc(F)cc1)c1nc(-c2ccccc2F)oc1N1CCCCC1 | -8.49

Compound | hERG current change (%, negative = inhibition) at 1uM [%]
O=C(COc1ccc(Cl)cc1Br)N1CCN(S(=O)(=O)c2ccccc2)CC1 | 5.13
O=C(NCCc1ccc(Cl)cc1)C1CCN(S(=O)(=O)N2CCCC2)CC1 | -0.168
CSc1ccccc1NC(=O)c1ccc(CN2CCOCC2)cc1 | 12.4
O=C(O)c1nn(Cc2nc3ccccc3o2)c(=O)c2ccccc12 | 16.2
Cc1ccc(Cn2c(CN3CCN(C(=O)c4ccco4)CC3)nc3c2c(=O)n(C)c(=O)n3C)cc1 | -18.8
COc1ccc(N=Cc2cc3c(cc2O)OC(N)=C(C#N)C3c2ccccc2)cc1 (stereo not drawn) | 7.56
O=C1NC(=O)C2(COC(c3cccnc3)OC2)S1 (stereo not drawn) | 10.9
CCN(CC(=O)Nc1c(F)cccc1F)C(=O)CCNC(=O)c1ccc([N+](=O)[O-])cc1 | -13
COc1ccc2nc(NC(=O)c3cccc(S(=O)(=O)N4CCOCC4)c3)sc2c1 | 13.7
N#Cc1ccccc1OCC(=O)OCC(=O)NC1CCS(=O)(=O)C1 (stereo not drawn) | 4.81
CCc1ccccc1NC(=O)COC(=O)c1c(C)nsc1NC | 4.98
COc1cccc(N2[C@@H](CC(C)=O)c3ccc(/C=C/C(C)=O)cc3S2(=O)=O)c1 | 8.23
NC1=NC(=O)/C(=C\c2ccco2)S1 | 16.9
O=C1S/C(=C\c2ccccn2)C(=O)N1Cc1ccccc1F | 12.6
NC(=O)C12CCCC(Br)(CCC1)C2 | 5.6
Cc1nc(NC(=O)c2ccc(Br)o2)sc1C | 8.42
CCCn1c(SCC(=O)N2CCCC(C)C2)nnc1-c1cccnc1 (stereo not drawn) | 16.6
COc1cccc(NC(=O)CN(C)C(=O)Cn2[nH]c(=O)c3ccccc3c2=O)c1 | 24
CSc1ncccc1C(=O)NC1CCCCCC1 | 5.33
Cc1ccc(CNC(=S)Nc2cc(C)ccc2OC(F)F)cc1 | 2.49
CC(=O)N1CCC(C(=O)Nc2ccccc2)(N(Cc2ccccc2)C(=O)c2cccnc2)CC1 | 17.6

— publication PMC4336329 (PLoS ONE, 2015)
